# From the supplement of paper PMC8728848
# The other results are listed elsewhere or left out.
# Columns and labels:
# Experiment in all cases: glycan array binding signal (z-score within array); higher = stronger binding
# Conditions in all cases: glycan notation: IUPAC condensed, linker removed
# Gal4S6S(b1-4)GlcNAc = biological target: Gal4S6S(b1-4)GlcNAc
# Summary of the method: (§1)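 Glycan array data came from 3228 arrays in the Consortium for Functional Glycomics database, and only arrays with an available protein sequence were kept. Glycan names were put into IUPAC-condensed notation, and columns mapping to the same glycan were averaged. The binding signal is a within-array Z-score, averaged across arrays of one protein sequence run at different concentrations or buffers and across linkers. A negative Z-score can be read as non-binding.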
# Gal6S(b1-4)Glc = biological target: Gal6S(b1-4)Glc
# Summary of the method: as §1
# Gal6S(b1-4)Glc6S = biological target: Gal6S(b1-4)Glc6S
# Summary of the method: as §1
# Gal6S(b1-4)GlcNAc = biological target: Gal6S(b1-4)GlcNAc
# Summary of the method: as §1
# GalNAc(a1-3)Gal = biological target: GalNAc(a1-3)Gal
# Summary of the method: as §1
# GalNAc(a1-3)GalNAc = biological target: GalNAc(a1-3)GalNAc
# Summary of the method: as §1
# [1] = biological target: GalNAc(b1-3)Gal(a1-4)Gal(b1-4)GlcNAc
# Summary of the method: as §1
# GalNAc(b1-3)GalNAc = biological target: GalNAc(b1-3)GalNAc
# Summary of the method: as §1
# GalNAc(b1-4)GlcNAc = biological target: GalNAc(b1-4)GlcNAc
# Summary of the method: as §1
# Glc(a1-4)Glc = biological target: Glc(a1-4)Glc
# Summary of the method: as §1
# Glc(a1-6)Glc(a1-6)Glc = biological target: Glc(a1-6)Glc(a1-6)Glc
# Summary of the method: as §1
# Glc(b1-4)Glc = biological target: Glc(b1-4)Glc
# Summary of the method: as §1
# Glc(b1-6)Glc = biological target: Glc(b1-6)Glc
# Summary of the method: as §1
# GlcA(b1-3)Gal = biological target: GlcA(b1-3)Gal
# Summary of the method: as §1
# GlcA(b1-6)Gal = biological target: GlcA(b1-6)Gal
# Summary of the method: as §1
# [2] = biological target: GlcNAc(a1-3)Gal(b1-4)GlcNAc
# Summary of the method: as §1
# [3] = biological target: GlcNAc(a1-6)Gal(b1-4)GlcNAc
# Summary of the method: as §1
# [4] = biological target: GlcNAc(b1-2)Gal(b1-3)GalNAc
# Summary of the method: as §1
# [5] = biological target: GlcNAc(b1-2)Man(a1-3)[GlcNAc(b1-2)Man(a1-6)]Man(b1-4)GlcNAc(b1-4)GlcNAc
# Summary of the method: as §1
# GlcNAc(b1-3)Gal = biological target: GlcNAc(b1-3)Gal
# Summary of the method: as §1
# [6] = biological target: GlcNAc(b1-3)Gal(b1-3)GalNAc
# Summary of the method: as §1
# GlcNAc(b1-3)Gal(b1-4)Glc = biological target: GlcNAc(b1-3)Gal(b1-4)Glc
# Summary of the method: as §1
# [7] = biological target: GlcNAc(b1-3)Gal(b1-4)GlcNAc
# Summary of the method: as §1
# [8] = biological target: GlcNAc(b1-3)Gal(b1-4)GlcNAc(b1-3)Gal(b1-4)GlcNAc
# Summary of the method: as §1
# GlcNAc(b1-3)GalNAc = biological target: GlcNAc(b1-3)GalNAc
# Summary of the method: as §1
# [9] = biological target: GlcNAc(b1-3)[GlcNAc(b1-6)]Gal(b1-4)GlcNAc
# Summary of the method: as §1
# [10] = biological target: GlcNAc(b1-3)[GlcNAc(b1-6)]GalNAc
# Summary of the method: as §1
# [11] = biological target: GlcNAc(b1-3)[GlcNAc(b1-6)]GlcNAc(b1-4)GlcNAc
# Summary of the method: as §1
# [12] = biological target: GlcNAc(b1-4)Gal(b1-4)GlcNAc
# Summary of the method: as §1
# [13] = biological target: GlcNAc(b1-4)GlcNAc(b1-4)GlcNAc
# Summary of the method: as §1
# [14] = biological target: GlcNAc(b1-4)GlcNAc(b1-4)GlcNAc(b1-4)GlcNAc(b1-4)GlcNAc
# Summary of the method: as §1
# [15] = biological target: GlcNAc(b1-4)GlcNAc(b1-4)GlcNAc(b1-4)GlcNAc(b1-4)GlcNAc(b1-4)GlcNAc
# Summary of the method: as §1
# [16] = biological target: GlcNAc(b1-4)[GlcNAc(b1-6)]GalNAc
# Summary of the method: as §1
# [17] = biological target: GlcNAc(b1-6)Gal(b1-4)GlcNAc
# Summary of the method: as §1
# GlcNAc(b1-6)GalNAc = biological target: GlcNAc(b1-6)GalNAc
# Summary of the method: as §1
# Kdn(a2-3)Gal(b1-3)GlcNAc = biological target: Kdn(a2-3)Gal(b1-3)GlcNAc
# Summary of the method: as §1
# Kdn(a2-3)Gal(b1-4)GlcNAc = biological target: Kdn(a2-3)Gal(b1-4)GlcNAc
# Summary of the method: as §1
# [18] = biological target: Man(a1-2)Man(a1-2)Man(a1-3)Man
# Summary of the method: as §1
# [19] = biological target: Man(a1-2)Man(a1-2)Man(a1-6)[Man(a1-3)]Man
# Summary of the method: as §1
# Man(a1-2)Man(a1-3)Man = biological target: Man(a1-2)Man(a1-3)Man
# Summary of the method: as §1
# [20] = biological target: Man(a1-2)Man(a1-3)[Man(a1-2)Man(a1-6)]Man
# Summary of the method: as §1
# [21] = biological target: Man(a1-2)Man(a1-3)[Man(a1-2)Man(a1-6)]Man(a1-6)[Man(a1-2)Man(a1-2)Man(a1-3)]Man(b1-4)GlcNAc(b1-4)GlcNAc
# Summary of the method: as §1
# [22] = biological target: Man(a1-2)Man(a1-3)[Man(a1-6)]Man(a1-6)[Man(a1-2)Man(a1-3)]Man(b1-4)GlcNAc(b1-4)GlcNAc
# Summary of the method: as §1
# [23] = biological target: Man(a1-2)Man(a1-6)[Man(a1-3)]Man(a1-6)[Man(a1-2)Man(a1-2)Man(a1-3)]Man(b1-4)GlcNAc(b1-4)GlcNAc
# Summary of the method: as §1
# Man(a1-3)[Man(a1-6)]Man = biological target: Man(a1-3)[Man(a1-6)]Man
# Summary of the method: as §1
# [24] = biological target: Man(a1-3)[Man(a1-6)]Man(a1-6)[Man(a1-2)Man(a1-3)]Man(b1-4)GlcNAc(b1-4)GlcNAc
# Summary of the method: as §1
# [25] = biological target: Man(a1-3)[Man(a1-6)]Man(a1-6)[Man(a1-3)]Man(b1-4)GlcNAc(b1-4)GlcNAc
# Summary of the method: as §1
# [26] = biological target: Man(a1-3)[Man(a1-6)]Man(b1-4)GlcNAc(b1-4)GlcNAc
# Summary of the method: as §1
# Man(b1-4)GlcNAc = biological target: Man(b1-4)GlcNAc
# Summary of the method: as §1
# Neu5Ac(a2-3)Gal = biological target: Neu5Ac(a2-3)Gal
# Summary of the method: as §1
# [27] = biological target: Neu5Ac(a2-3)Gal(b1-3)GalNAc
# Summary of the method: as §1
# [28] = biological target: Neu5Ac(a2-3)Gal(b1-3)GalNAc(b1-3)Gal(a1-4)Gal(b1-4)Glc
# Summary of the method: as §1
binder,measurement,setting,value
CV-IIL (Chromobacterium violaceum) (protein) AQQGVFTLPARINFGVTVLVNSAATQHVEIFVDNEPRAAFSGVGTGDNNLGTKVINSGSGNVRVQITANGRQSDLVSSQLVLANKLNLAVVGSEDGTDMDYNDSIVILNWPLG,glycan array binding signal (z-score),Gal4S6S(b1-4)GlcNAc,-0.502
same,glycan array binding signal (z-score),Gal6S(b1-4)Glc,-0.501
same,glycan array binding signal (z-score),Gal6S(b1-4)Glc6S,-0.499
same,glycan array binding signal (z-score),Gal6S(b1-4)GlcNAc,-0.502
same,glycan array binding signal (z-score),GalNAc(a1-3)Gal,-0.502
same,glycan array binding signal (z-score),GalNAc(a1-3)GalNAc,-0.501
same,glycan array binding signal (z-score),[1],-0.501
same,glycan array binding signal (z-score),GalNAc(b1-3)GalNAc,-0.501
same,glycan array binding signal (z-score),GalNAc(b1-4)GlcNAc,-0.493
same,glycan array binding signal (z-score),Glc(a1-4)Glc,-0.49
same,glycan array binding signal (z-score),Glc(a1-6)Glc(a1-6)Glc,-0.493
same,glycan array binding signal (z-score),Glc(b1-4)Glc,-0.483
same,glycan array binding signal (z-score),Glc(b1-6)Glc,-0.498
same,glycan array binding signal (z-score),GlcA(b1-3)Gal,-0.499
same,glycan array binding signal (z-score),GlcA(b1-6)Gal,-0.486
same,glycan array binding signal (z-score),[2],-0.502
same,glycan array binding signal (z-score),[3],-0.501
same,glycan array binding signal (z-score),[4],-0.502
same,glycan array binding signal (z-score),[5],-0.463
same,glycan array binding signal (z-score),GlcNAc(b1-3)Gal,-0.494
same,glycan array binding signal (z-score),[6],-0.501
same,glycan array binding signal (z-score),GlcNAc(b1-3)Gal(b1-4)Glc,-0.502
same,glycan array binding signal (z-score),[7],-0.5
same,glycan array binding signal (z-score),[8],-0.501
same,glycan array binding signal (z-score),GlcNAc(b1-3)GalNAc,-0.501
same,glycan array binding signal (z-score),[9],-0.502
same,glycan array binding signal (z-score),[10],-0.502
same,glycan array binding signal (z-score),[11],-0.501
same,glycan array binding signal (z-score),[12],-0.502
same,glycan array binding signal (z-score),[13],-0.501
same,glycan array binding signal (z-score),[14],-0.501
same,glycan array binding signal (z-score),[15],-0.501
same,glycan array binding signal (z-score),[16],-0.502
same,glycan array binding signal (z-score),[17],-0.501
same,glycan array binding signal (z-score),GlcNAc(b1-6)GalNAc,-0.5
same,glycan array binding signal (z-score),Kdn(a2-3)Gal(b1-3)GlcNAc,-0.502
same,glycan array binding signal (z-score),Kdn(a2-3)Gal(b1-4)GlcNAc,-0.502
same,glycan array binding signal (z-score),[18],1.6
same,glycan array binding signal (z-score),[19],2.51
same,glycan array binding signal (z-score),Man(a1-2)Man(a1-3)Man,1.55
same,glycan array binding signal (z-score),[20],2.5
same,glycan array binding signal (z-score),[21],1.82
same,glycan array binding signal (z-score),[22],2.41
same,glycan array binding signal (z-score),[23],2.64
same,glycan array binding signal (z-score),Man(a1-3)[Man(a1-6)]Man,2.82
same,glycan array binding signal (z-score),[24],2.43
same,glycan array binding signal (z-score),[25],1.88
same,glycan array binding signal (z-score),[26],2.82
same,glycan array binding signal (z-score),Man(b1-4)GlcNAc,-0.494
same,glycan array binding signal (z-score),Neu5Ac(a2-3)Gal,-0.502
same,glycan array binding signal (z-score),[27],-0.502
same,glycan array binding signal (z-score),[28],-0.499
